Assay results taken from publication PMC4336329 (PLoS ONE, 2015).
Screen size: about 310,000 compounds; about 14,000 (4.5%) showed an effect of 50% or more. Effects have a minus sign here. The list shows a part of the results.

What follows are compounds tested against human ether-à-go-go-related gene (hERG) potassium channel (human, UniProt Q12809) (assay: primary screen, population patch clamp on CHO cells stably expressing hERG).
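Also: peak tail current of the secondary pulse compared with the same well before compound.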

human ether-à-go-go-related gene (hERG) potassium channel, sequence (Q12809 whole entry, looked up): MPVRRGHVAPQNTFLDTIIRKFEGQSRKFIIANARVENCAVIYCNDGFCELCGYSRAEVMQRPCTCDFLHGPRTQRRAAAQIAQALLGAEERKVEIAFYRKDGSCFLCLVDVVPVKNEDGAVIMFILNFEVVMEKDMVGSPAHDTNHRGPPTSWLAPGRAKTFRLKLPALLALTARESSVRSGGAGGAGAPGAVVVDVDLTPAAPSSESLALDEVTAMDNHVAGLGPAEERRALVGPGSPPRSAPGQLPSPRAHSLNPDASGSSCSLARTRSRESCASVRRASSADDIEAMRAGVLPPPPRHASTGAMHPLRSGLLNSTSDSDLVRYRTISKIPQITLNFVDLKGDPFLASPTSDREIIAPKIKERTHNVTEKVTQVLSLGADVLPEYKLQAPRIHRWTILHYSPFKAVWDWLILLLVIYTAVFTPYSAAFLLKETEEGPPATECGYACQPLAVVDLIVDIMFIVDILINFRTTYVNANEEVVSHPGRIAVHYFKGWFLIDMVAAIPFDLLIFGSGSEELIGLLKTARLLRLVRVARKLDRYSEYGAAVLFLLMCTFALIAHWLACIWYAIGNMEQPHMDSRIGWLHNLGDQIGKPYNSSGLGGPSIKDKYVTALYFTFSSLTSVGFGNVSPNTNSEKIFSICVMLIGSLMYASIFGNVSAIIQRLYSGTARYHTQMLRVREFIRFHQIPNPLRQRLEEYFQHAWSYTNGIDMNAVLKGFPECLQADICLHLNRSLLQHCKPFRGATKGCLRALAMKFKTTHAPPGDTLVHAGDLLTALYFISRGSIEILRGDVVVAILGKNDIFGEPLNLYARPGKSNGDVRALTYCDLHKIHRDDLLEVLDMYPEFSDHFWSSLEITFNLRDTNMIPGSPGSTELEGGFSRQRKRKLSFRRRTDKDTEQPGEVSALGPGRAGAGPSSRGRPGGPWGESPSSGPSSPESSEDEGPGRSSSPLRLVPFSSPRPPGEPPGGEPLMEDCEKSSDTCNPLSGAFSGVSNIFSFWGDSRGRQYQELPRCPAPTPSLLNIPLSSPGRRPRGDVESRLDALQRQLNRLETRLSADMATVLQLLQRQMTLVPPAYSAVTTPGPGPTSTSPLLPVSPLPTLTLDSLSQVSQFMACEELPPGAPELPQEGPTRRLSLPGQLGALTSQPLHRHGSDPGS

Structure (SMILES)	hERG current change (%, negative = inhibition) at 10uM
Cc1ccc(NC(=S)Nc2ccc3cn[nH]c3c2)c(C)c1	-19.3%
O=C(NCc1cccc(Br)c1)C1CC(c2ccc(C(F)(F)F)cc2)=NO1 (stereo not shown)	7.56%
CC(=O)NCCc1nc2ccccc2n1Cc1ccccc1	1.05%
CCOc1ccc(S(=O)(=O)N(CC(N)=O)c2ccc(C)cc2)cc1	3.12%
CS(=O)(=O)c1ccc(C(=O)OCC(=O)NC2CCS(=O)(=O)C2)cc1[N+](=O)[O-] (stereo not shown)	10.3%
CC(C)[C@H](NC(=O)c1ccco1)C(=O)OCC(=O)N1CCc2ccccc21	-13.8%
O=C(O)c1ccc(CS(=O)(=O)c2c(Cl)cccc2Cl)o1	19%
Cn1c(=O)n(C)c2cc([N+](=O)[O-])c(N3CCN(CCO)CC3)cc21	24.9%
CC1CC1C(=O)OCC(=O)NNC(=O)c1ccc([N+](=O)[O-])cc1 (stereo not shown)	-2.32%
COc1ccc(OC)c(/C=N/N(CCC#N)C2=NS(=O)(=O)c3ccccc32)c1	6.86%
CCOc1cc(S(=O)(=O)NCc2ccc(OC)cc2)c(OCC)cc1-n1cnnn1	-8.35%
CC(C)NC(=O)c1cc(-c2cccs2)on1	-4.89%
COC(=O)COc1ccc(S(=O)(=O)N2CCc3ccccc3C2)cc1C	-4.79%
Cl.Clc1ccc(-c2ccc(CNCC3CCCO3)o2)cc1 (stereo not shown)	-62.4%
CSc1cccc(CN2CCC(n3nccc3NC(=O)C3CC3)CC2)c1	-51.4%
CCCCCCn1c(N2CCN(c3cccc(Cl)c3)CC2)nc2c1c(=O)[nH]c(=O)n2C	-11.7%
COc1ccc(-c2ccc3ccccc3n2)cc1OC	3.24%
CCCn1nc(C(=O)Nc2cccc(C(=O)OC)c2)c2ccccc2c1=O	-11.3%
Cc1ccc(OCC(=O)Oc2c(C)cccc2C)cc1	16.8%
Cc1ccc(C(=O)NN2C(=O)/C(=C/c3cn(C)c4ccccc34)SC2=S)cc1	13.6%
N#Cc1cc2ccccc2nc1SCc1ccccn1	-5.4%
COc1cc(OC)cc(C(=O)Nc2ccc(S(=O)(=O)N3CCOCC3)cc2)c1	5.74%

Structure (SMILES)	hERG current change (%, negative = inhibition) at 10uM
COCCN(C(=O)COC(=O)CCC(=O)c1ccc(Cl)cc1)c1c(N)n(Cc2ccccc2)c(=O)[nH]c1=O	-1.48%
CC(=O)c1cccc(NC(=O)CSc2ccc(-c3ccco3)nn2)c1	1.79%
Br.c1ccc(CN2CCC(N=C3NN=C(c4ccc5c(c4)OCCO5)CS3)CC2)cc1	-43.1%
CN(CC(=O)N1CCN(c2ccccc2F)CC1)S(=O)(=O)c1cnc[nH]1	8.33%
COc1cccc(-c2c(C(=O)N/N=C/c3ccc(C)s3)nnn2-c2nonc2N)c1	3.44%
Oc1cc2c(cc1O)CN(C(=S)NCCc1ccc(Cl)cc1)CCC2	-28.3%
Cc1cc2[nH]c(=O)c(=O)[nH]c2cc1S(=O)(=O)N1CCN(c2cccc(C)c2C)CC1	-3.62%
CCCc1cc(C(=O)N2CCCC(C(=O)c3cccc4ccccc34)C2)n(C)n1 (stereo not shown)	15.3%
C/C(=N/NC(=O)c1cccs1)c1ccc(NC(=O)COc2ccc(Cl)cc2Cl)cc1	7.36%
CCOC(=O)CNC(=O)CSc1ncnc2c1cnn2Cc1ccccc1	2.07%
Cc1nc(-c2ccc(NC(=O)c3ccccc3C)cc2)cs1	4.58%
CN(CCOc1ccc(Cl)cc1)C(=O)Cc1ccc(S(=O)(=O)N2CCOCC2)s1	-73.1%
CCCn1c(=O)[nH]c(=O)c2c1nc(-c1ccc(OC(F)(F)C(F)C(F)(F)F)cc1)n2CCOC (stereo not shown)	-21.5%
CCC(Nc1ccc(OC)cc1)C(=O)N/N=C/c1ccc([N+](=O)[O-])cc1 (stereo not shown)	-33.3%
COc1ccc(OC)c(NC(=S)NCCSc2ccc(C)cc2)c1	-2.84%
COc1ccc(-c2nc3c(c(SCC(=O)Nc4cccc(O)c4)n2)Cc2c(CO)cnc(C)c2O3)cc1	18.7%
COc1ccc(OC)c(NC(=O)COC(=O)c2nc(Cl)ccc2Cl)c1	10.7%
Nc1nnc(SCc2cccc(C(F)(F)F)c2)s1	8.89%
COc1ccc2[nH]c3c(c2c1)CCN1C(=O)N([C@@H](C)C(=O)NC2CCCC2)C(=O)[C@]31C	-16.4%
COc1ccc2cc3cc(C(=O)N4CCCCCC4)oc3nc2c1	5.99%
COC(=O)c1c(C)oc2ccc(NS(=O)(=O)c3cccs3)cc12	-2.42%
